In PubChem BioAssay AID651820 (National Center for Advancing Translational Sciences (NCATS), 2012):
Values joined by “and” are separate entries in the source; they are usually repeats but may differ in a detail not shown here. Identical values can stand only once. The whole screen tested about 340,000 compounds, of which about 12,000 (3.5%) were called active. The inconclusive results got no clear call from the source; some entries with a clear call stand among them for comparison. The call rests on the fitted dose curve; in most records, active means well fitted inhibition curve with a large enough effect; inconclusive means small, poorly fitted or top-dose-only effect, or another doubt; inactive means no such curve, though single readings can be large or run the other way. Potencies beside an inconclusive call are fits to weak or partial responses and may not hold up.

assay: qHTS Assay for Inhibitors of Hepatitis C Virus (HCV); settings: Huh7.5.1 HCVcc-Cre (HCVcc is cell-culture hepatitis C virus) infection, luciferase reporter, 44 h; activity change, negative = inhibition: at 41.8 µM (top of the series) unless noted
Outline: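 Infectious HCVcc-Cre (~0.5 moi) was added to cells just after compound, with cells seeded 4 h earlier at 1,000 per well. Luciferase activity after 44 h culture reported infection; substrate was incubated 15 min at room temperature before reading.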
On the % scale 0 is the no-effect control and ±100 the full control effect; potency means the concentration at half of the fitted maximal effect; tags describe the fitted curve by direction and shape.

SMILES | Potency | activity change, negative = inhibition
COc1ccc2nc(NC(=O)CSCC(=O)Nc3cc(C)on3)sc2c1 | inconclusive: 20 µM [inhibitor, partial curve, poor fit] | –
O=C(Cc1ccc(Cl)cc1)NNC(=O)Nc1cccc2ccccc12 | inconclusive: 8.91 µM [inhibitor, partial curve, poor fit] | –
COC(=O)CCCC1=CC2=C(c3ccccc3)C(=O)C(C)(OC(=O)C3CCCC3)C(=O)C2=CN1C(CO)CO (centres undefined) | – | inactive: 14.8%
O=C(NCCN1CCCC1)c1ccc2c(c1)N(Cc1ccccc1)C(=O)c1ccccc1S2(=O)=O | inconclusive: 12.6 µM [inhibitor, partial curve] | –
Cc1ccc(Nc2nc(N)nc(CN3CCN(Cc4ccc5c(c4)OCO5)CC3)n2)cc1Cl | active: 31.6 µM | –
CN(C)CCNC(=O)C12CC3(C)CC(C)(CC(C)(C3)C1)C2 | inconclusive: 25.1 µM [inhibitor, single point] | –
Cc1cc(N2CCOCC2)n2nc(C)c(-c3ccccc3Cl)c2n1 | inconclusive: 10 µM [inhibitor, partial curve] | –
CCOc1cc(C(=O)Nc2ccccc2F)cc(Br)c1OCC | inconclusive: 4.47 µM [inhibitor, full curve] | –
COc1cccc(NC(=O)Cc2ccc3ccccc3c2)c1 | inconclusive: 14.1 µM [inhibitor, single point] | –
CCNc1nc(NC(C)C)nc(N(n2cnnc2)S(=O)(=O)c2ccc(C)cc2)n1 | inconclusive: 28.2 µM [inhibitor, single point] | –
CCc1cc(C(=O)N2CCN(S(=O)(=O)c3cc(C)ccc3C)CC2)sc1C | inconclusive: 22.4 µM [inhibitor, single point] | –
O=C(c1cccc(Cl)c1)N1CCN(c2ccccn2)CC1 | – | inactive: -1.17%
CCN(CC)C(=O)CSC1=C(C#N)C(c2ccco2)C(C(=O)OCCOC)=C(C)N1 (centres undefined) | inactive and inconclusive: 10 µM [inhibitor, partial curve] | –
CN1/C(=C/C(=S)NC(=O)C2(C)CC2(Cl)Cl)C(C)(C)c2ccccc21 (centres undefined) | inconclusive: 11.2 µM [inhibitor, partial curve] | –
CCOc1ccc(C(C)(C)C)cc1S(=O)(=O)N1CCOCC1 | inconclusive: 10 µM [inhibitor, partial curve] | –
Cc1cccc(Nc2nnc(SCC(=O)c3ccc(Br)s3)s2)c1C | inconclusive: 22.4 µM [inhibitor, single point] | –
Cc1cccc(N/N=C/c2ccncc2)c1 | inconclusive: 31.6 µM [inhibitor, single point] | –
O=[N+]([O-])c1ccccc1C=NNC(=S)NN=Cc1ccccc1[N+](=O)[O-] | inconclusive: 31.6 µM [inhibitor, single point] | –
COc1cccc(C2=CC(=O)C[C@H](c3ccc(OC)c(OC)c3)C2)c1 | inconclusive: 31.6 µM [inhibitor, single point] | –
CCOC(=O)C1CCN(C(=O)COc2ccc(N(C)S(=O)(=O)c3ccc(C)cc3)cc2)CC1 | – | inactive: -9.62%
CC1=CC(=C2C(=O)c3ccccc3C2=O)C=C(C)N1C | – | inactive: 11.3%
CCCCCN(C(=O)CCC(=O)OCc1ccccc1F)c1c(N)n(CCCC)c(=O)[nH]c1=O | – | inactive: -1.11%

SMILES | Potency | activity change, negative = inhibition
CS(=O)(=O)c1ccc(C(=O)Nc2ccc(S(=O)(=O)N3CCCCC3)cc2)cc1 | inconclusive: 35.5 µM [inhibitor, single point] | –
CCn1c(SCC(N)=O)nnc1-c1cc2c(C)nn(-c3ccccc3)c2s1 | inconclusive: 31.6 µM [inhibitor, single point] | –
COc1ccc(OC(C)C(=O)Nc2cccc([N+](=O)[O-])c2)cc1 (centres undefined) | inconclusive: 5.62 µM [inhibitor, single point] | –
CCOc1ccccc1-n1nnnc1SCC(=O)Nc1cc(C)on1 | inconclusive: 3.55 µM [inhibitor, partial curve] | –
Cc1cc(-c2ccc3ccccc3c2)n2ncnc2n1 | – | inactive: -0.226%
CCCOc1cccc(C(=O)N(Cc2ccccc2)C2CCS(=O)(=O)C2)c1 (centres undefined) | – | inactive: 13.8%
COc1cc(OC)cc(-c2c(C#Cc3ccsc3)c3cc(-c4ccc5cc[nH]c5c4)ccc3n2C)c1 | – | inactive: -17.2%
CCOc1ccc(CN2CCN(C(=O)c3cccc4ccccc34)CC2)cc1 | active: 7.08 µM | –
CCCCNc1c(-c2ccc(OC)c(SC3CCCCC3)c2)nc2cc(C)ccn12 | active: 3.98 µM | –
CC(Oc1cccc(Cl)c1)C(=O)Nc1cc(S(=O)(=O)N2CCCCC2)ccc1N1CCOCC1 (centres undefined) | inconclusive: 2.51 µM [inhibitor, partial curve] | –
COc1cc(/C=C2\CC/C(=C\c3cc(OC)c(O)c(OC)c3)C2=O)cc(OC)c1O | inconclusive: 7.08 µM [inhibitor, partial curve] | –
Cc1occc1-c1nnc(SCCCC(=O)c2ccc(F)cc2)n1C | inconclusive: 35.5 µM [inhibitor, partial curve] | –
Cc1noc(C)c1CSc1nc2sc3c(c2c(=O)n1C)CCCC3 | inconclusive: 4.47 µM [inhibitor, partial curve] | –
CCN1C(=O)c2ccccc2Sc2ccc(C(=O)O)cc21 | – | inactive: 8.21%
Cc1cc(SCNC(=O)c2ccccc2)ncn1 | – | inactive: 5.78%
CCOc1cc(C(=O)Nc2ccc(N3CCN(C(C)=O)CC3)cc2)cc(OCC)c1OCC | inconclusive: 6.31 µM [inhibitor, full curve] | –
Cn1cc(/C=N/n2cnc3scc(-c4ccc(Cl)cc4)c3c2=O)c2ccccc21 | active: 5.62 µM | –
Clc1nc(CN2CCCCC2)nc2sc3c(c12)CCCC3 | – | inactive: -17.3%
Cc1csc(NC(=O)CSc2ncn(-c3ccccc3)n2)n1 | – | inactive: 2.39%
COc1ccc2c(c1OC)C(=O)N1C2SC[C@H]1C(=O)NC1CCCCC1 (some centres undefined) | inconclusive: 31.6 µM [inhibitor, single point] | –
Cc1ccc(C(=O)Nc2cccc(Oc3ccccc3)c2)o1 | inconclusive: 22.4 µM [inhibitor, single point] | –
CCCOc1ccc(/C=C/C(=O)NC2CCCCC2)cc1 | inconclusive: 22.4 µM [inhibitor, partial curve] | –
